The values that follow come from patent US20240207311A1, “TUMOR INFILTRATING LYMPHOCYTES THERAPY” (Alethia Biotherapeutics Inc., priority 2021, published 2024).

Entries after “also recorded” stand apart in the source; their conditions may differ.

The test system of experiment [1] is thyroid cancer metastasic to the lungs. The experiment can be described thus: Tumor biopsies of patients treated with AB-16B5 as single agent, thyroid cancer. The experiment is classed as in vivo, human. To be noted: biopsy after the second cycle, H&E, FIG. 2B. As to the method: (§1) In parallel human tumor biopsies of patients treated with AB-16B5 (humanized 16B5) as single agent were analyzed (FIGS. 2B-2E). Needle biopsies obtained from a patient with metastatic thyroid cancer and form a patient with inoperable metastatic gastric cancer were sectioned and stained with hematoxylin and eosin. An on-treatment biopsy from a patient with thyroid cancer metastasic to the lungs was obtained after the second cycle treatment with AB-16B5. […] Hemosiderin-laden macrophages were observed inside necrotic areas some reflecting red blood cell extravasation associated with necrosis (not shown).

In experiment [2] the test system is inoperable metastatic gastric cancer. Description: Tumor biopsies of patients treated with AB-16B5 as single agent, gastric cancer. The experiment is classed as in vivo, human. The following applies: biopsy after the second cycle, H&E, FIG. 2E. How it is done:
as §1

B1: humanized 16B5: humanized anti-clusterin antibody (light chain SEQ ID NO:11, heavy chain SEQ ID NO:12), used in patients (antibody)
heavy: QVQLVQSGAEVKKPGATVKISCKVSGFNIKDIYMHWVQQAPGKGLEWMGRIDPAYGNTKYDPKFQGRVTITADTSTDTAYMELSSLRSEDTAVYYCARRYDTAMDYWGQGTLVTVSSASTKGPSVFPLAPCSRSTSESTAALGCLVKDYFPEPVTVSWNSGALTSGVHTFPAVLQSSGLYSLSSVVTVPSSNFGTQTYTCNVDHKPSNTKVDKTVERKCCVECPPCPAPPVAGPSVFLFPPKPKDTLMISRTPEVTCVVVDVSHEDPEVQFNWYVDGVEVHNAKTKPREEQFNSTFRVVSVLTVVHQDWLNGKEYKCKVSNKGLPAPIEKTISKTKGQPREPQVYTLPPSREEMTKNQVSLTCLVKGFYPSDIAVEWESNGQPENNYKTTPPMLDSDGSFFLYSKLTVDKSRWQQGNVFSCSVMHEALHNHYTQKSLSLSPGK
light: DIVMTQSPDSLAVSLGERATINCKSSQSLLNSRTRKNYLAWYQQKPGQPPKLLIYWASTRESGVPDRFSGSGSGTDFTLTISSLQAEDVAVYYCKQSYNLWTFGQGTKLEIKVAAPSVFIFPPSDEQLKSGTASVVCLLNNFYPREAKVQWKVDNALQSGNSQESVTEQDSKDSTYSLSSTLTLSKADYEKHKVYACEVTHQGLSSPVTKSFNRGEC
modifications: Humanized 16B5 heavy chain; Humanized 16B5 light chain
As to B1, the “tumor necrosis in on-treatment biopsy” value in experiment [1] is “essentially all tumor fragments were necrotic”. Moreover, the “immune infiltrate in on-treatment biopsy” value in experiment [1] (2C) was “lymphoplasmacytic infiltrate was observed along the edge of the fragment; also recorded: perivascular infiltrate composed of plasma cells along the edge of tumor fragment”; in experiment [2] it was “infiltrated by a mix neutrophilic and mononucleated immune cells infiltrate”.
